Source: the supplement of paper PMC11876631
± gives the standard deviation of the averaged measurements. Laboratory Escherichia coli strains with one amino-acid change in an essential protein, pooled on minimal glucose agar with carbenicillin or gentamicin at twice the control MIC (plus kanamycin and chloramphenicol for the plasmids), 48 h. Fold change of barcode share against drug-free plates; higher = less susceptible. Active = above 20 in both replicates (the paper's putatively resistant). '<' = one read or none on drug, '>' = one read or none on a drug-free plate. Shares are relative, so most strains fall below 1 when a few take over. Listed are strains with at least 15 reads on both drug-free plates, and hits; most hits rest on fewer reference reads. Replicate rank correlation about 0.5. Edits are read from barcodes.

Target: Escherichia coli (laboratory strain)
Assay: barcode share on antibiotic plates over drug-free plates; higher = less susceptible
Procedure: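 A pool of E. coli strains, each edited to carry one amino-acid change in an essential protein, was grown for 48 h on minimal glucose agar with or without antibiotic; strain barcodes were sequenced; mean of two replicates.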

[1] = antibiotic: carbenicillin, 2× MIC (3.1 µg/mL)
[2] = antibiotic: gentamicin, 2× MIC (MIC 0.45 µg/mL)

B1: fabD L251Q (protein)
chain: MTQFAFVFPGQGSQTVGMLADMAASYPIVEETFAEASAALGYDLWALTQQGPAEELNKTWQTQPALLTASVALYRVWQQQGGKAPAMMAGHSLGEYSALVCAGVIDFADAVRLVEMRGKFMQEAVPEGTGAMAAIIGLDDASIAKACEEAAEGQVVSPVNFNSPGQVVIAGHKEAVERAGAACKAAGAKRALPLPVSVPSHCALMKPAADKLAVELAKITFNAPTVPVVNNVDVKCETNGDAIRDALVRQQYNPVQWTKSVEYMAAQGVEHLYEVGPGKVLTGLTKRIVDTLTASALNEPSAMAAALEL
fold change of barcode share [1]: 0.183 ± 0.035 | fold change of barcode share [2]: < 0.00476

B2: fabD L251D (protein)
chain: MTQFAFVFPGQGSQTVGMLADMAASYPIVEETFAEASAALGYDLWALTQQGPAEELNKTWQTQPALLTASVALYRVWQQQGGKAPAMMAGHSLGEYSALVCAGVIDFADAVRLVEMRGKFMQEAVPEGTGAMAAIIGLDDASIAKACEEAAEGQVVSPVNFNSPGQVVIAGHKEAVERAGAACKAAGAKRALPLPVSVPSHCALMKPAADKLAVELAKITFNAPTVPVVNNVDVKCETNGDAIRDALVRQDYNPVQWTKSVEYMAAQGVEHLYEVGPGKVLTGLTKRIVDTLTASALNEPSAMAAALEL
fold change of barcode share [1]: 0.341 ± 0.093 | fold change of barcode share [2]: < 0.00584

B3: fabD L251P (protein)
chain: MTQFAFVFPGQGSQTVGMLADMAASYPIVEETFAEASAALGYDLWALTQQGPAEELNKTWQTQPALLTASVALYRVWQQQGGKAPAMMAGHSLGEYSALVCAGVIDFADAVRLVEMRGKFMQEAVPEGTGAMAAIIGLDDASIAKACEEAAEGQVVSPVNFNSPGQVVIAGHKEAVERAGAACKAAGAKRALPLPVSVPSHCALMKPAADKLAVELAKITFNAPTVPVVNNVDVKCETNGDAIRDALVRQPYNPVQWTKSVEYMAAQGVEHLYEVGPGKVLTGLTKRIVDTLTASALNEPSAMAAALEL
fold change of barcode share [1]: 0.241 ± 0.052 | fold change of barcode share [2]: 0.00646 ± 0.0028

B4: fabD V261A (protein)
chain: MTQFAFVFPGQGSQTVGMLADMAASYPIVEETFAEASAALGYDLWALTQQGPAEELNKTWQTQPALLTASVALYRVWQQQGGKAPAMMAGHSLGEYSALVCAGVIDFADAVRLVEMRGKFMQEAVPEGTGAMAAIIGLDDASIAKACEEAAEGQVVSPVNFNSPGQVVIAGHKEAVERAGAACKAAGAKRALPLPVSVPSHCALMKPAADKLAVELAKITFNAPTVPVVNNVDVKCETNGDAIRDALVRQLYNPVQWTKSAEYMAAQGVEHLYEVGPGKVLTGLTKRIVDTLTASALNEPSAMAAALEL
fold change of barcode share [1]: 0.114 ± 0.02 | fold change of barcode share [2]: 0.11 ± 0.14

B5: fabD V261W (protein)
chain: MTQFAFVFPGQGSQTVGMLADMAASYPIVEETFAEASAALGYDLWALTQQGPAEELNKTWQTQPALLTASVALYRVWQQQGGKAPAMMAGHSLGEYSALVCAGVIDFADAVRLVEMRGKFMQEAVPEGTGAMAAIIGLDDASIAKACEEAAEGQVVSPVNFNSPGQVVIAGHKEAVERAGAACKAAGAKRALPLPVSVPSHCALMKPAADKLAVELAKITFNAPTVPVVNNVDVKCETNGDAIRDALVRQLYNPVQWTKSWEYMAAQGVEHLYEVGPGKVLTGLTKRIVDTLTASALNEPSAMAAALEL
fold change of barcode share [1]: 1.99 ± 1.4 | fold change of barcode share [2]: < 0.0138

B6: fabD V261Q (protein)
chain: MTQFAFVFPGQGSQTVGMLADMAASYPIVEETFAEASAALGYDLWALTQQGPAEELNKTWQTQPALLTASVALYRVWQQQGGKAPAMMAGHSLGEYSALVCAGVIDFADAVRLVEMRGKFMQEAVPEGTGAMAAIIGLDDASIAKACEEAAEGQVVSPVNFNSPGQVVIAGHKEAVERAGAACKAAGAKRALPLPVSVPSHCALMKPAADKLAVELAKITFNAPTVPVVNNVDVKCETNGDAIRDALVRQLYNPVQWTKSQEYMAAQGVEHLYEVGPGKVLTGLTKRIVDTLTASALNEPSAMAAALEL
fold change of barcode share [1]: 0.223 ± 0.022

B7: fabD V261P (protein)
chain: MTQFAFVFPGQGSQTVGMLADMAASYPIVEETFAEASAALGYDLWALTQQGPAEELNKTWQTQPALLTASVALYRVWQQQGGKAPAMMAGHSLGEYSALVCAGVIDFADAVRLVEMRGKFMQEAVPEGTGAMAAIIGLDDASIAKACEEAAEGQVVSPVNFNSPGQVVIAGHKEAVERAGAACKAAGAKRALPLPVSVPSHCALMKPAADKLAVELAKITFNAPTVPVVNNVDVKCETNGDAIRDALVRQLYNPVQWTKSPEYMAAQGVEHLYEVGPGKVLTGLTKRIVDTLTASALNEPSAMAAALEL
fold change of barcode share [1]: 0.301 ± 0.19 | fold change of barcode share [2]: 0.474 ± 0.66

B8: fabD I243A (protein)
chain: MTQFAFVFPGQGSQTVGMLADMAASYPIVEETFAEASAALGYDLWALTQQGPAEELNKTWQTQPALLTASVALYRVWQQQGGKAPAMMAGHSLGEYSALVCAGVIDFADAVRLVEMRGKFMQEAVPEGTGAMAAIIGLDDASIAKACEEAAEGQVVSPVNFNSPGQVVIAGHKEAVERAGAACKAAGAKRALPLPVSVPSHCALMKPAADKLAVELAKITFNAPTVPVVNNVDVKCETNGDAARDALVRQLYNPVQWTKSVEYMAAQGVEHLYEVGPGKVLTGLTKRIVDTLTASALNEPSAMAAALEL
fold change of barcode share [1]: 0.539 ± 0.51 | fold change of barcode share [2]: < 0.0125

B9: fabD I243W (protein)
chain: MTQFAFVFPGQGSQTVGMLADMAASYPIVEETFAEASAALGYDLWALTQQGPAEELNKTWQTQPALLTASVALYRVWQQQGGKAPAMMAGHSLGEYSALVCAGVIDFADAVRLVEMRGKFMQEAVPEGTGAMAAIIGLDDASIAKACEEAAEGQVVSPVNFNSPGQVVIAGHKEAVERAGAACKAAGAKRALPLPVSVPSHCALMKPAADKLAVELAKITFNAPTVPVVNNVDVKCETNGDAWRDALVRQLYNPVQWTKSVEYMAAQGVEHLYEVGPGKVLTGLTKRIVDTLTASALNEPSAMAAALEL
fold change of barcode share [1]: 1.44 ± 0.64 | fold change of barcode share [2]: < 0.00904

B10: fabD I243Q (protein)
chain: MTQFAFVFPGQGSQTVGMLADMAASYPIVEETFAEASAALGYDLWALTQQGPAEELNKTWQTQPALLTASVALYRVWQQQGGKAPAMMAGHSLGEYSALVCAGVIDFADAVRLVEMRGKFMQEAVPEGTGAMAAIIGLDDASIAKACEEAAEGQVVSPVNFNSPGQVVIAGHKEAVERAGAACKAAGAKRALPLPVSVPSHCALMKPAADKLAVELAKITFNAPTVPVVNNVDVKCETNGDAQRDALVRQLYNPVQWTKSVEYMAAQGVEHLYEVGPGKVLTGLTKRIVDTLTASALNEPSAMAAALEL
fold change of barcode share [1]: 0.573 ± 0.43 | fold change of barcode share [2]: < 0.00798

B11: fabD I243D (protein)
chain: MTQFAFVFPGQGSQTVGMLADMAASYPIVEETFAEASAALGYDLWALTQQGPAEELNKTWQTQPALLTASVALYRVWQQQGGKAPAMMAGHSLGEYSALVCAGVIDFADAVRLVEMRGKFMQEAVPEGTGAMAAIIGLDDASIAKACEEAAEGQVVSPVNFNSPGQVVIAGHKEAVERAGAACKAAGAKRALPLPVSVPSHCALMKPAADKLAVELAKITFNAPTVPVVNNVDVKCETNGDADRDALVRQLYNPVQWTKSVEYMAAQGVEHLYEVGPGKVLTGLTKRIVDTLTASALNEPSAMAAALEL
fold change of barcode share [1]: 0.313 ± 0.15 | fold change of barcode share [2]: 0.00981 ± 0.0053

B12: fabD I243P (protein)
chain: MTQFAFVFPGQGSQTVGMLADMAASYPIVEETFAEASAALGYDLWALTQQGPAEELNKTWQTQPALLTASVALYRVWQQQGGKAPAMMAGHSLGEYSALVCAGVIDFADAVRLVEMRGKFMQEAVPEGTGAMAAIIGLDDASIAKACEEAAEGQVVSPVNFNSPGQVVIAGHKEAVERAGAACKAAGAKRALPLPVSVPSHCALMKPAADKLAVELAKITFNAPTVPVVNNVDVKCETNGDAPRDALVRQLYNPVQWTKSVEYMAAQGVEHLYEVGPGKVLTGLTKRIVDTLTASALNEPSAMAAALEL
fold change of barcode share [1]: 0.23 ± 0.09 | fold change of barcode share [2]: < 0.00943

B13: fabD V255A (protein)
chain: MTQFAFVFPGQGSQTVGMLADMAASYPIVEETFAEASAALGYDLWALTQQGPAEELNKTWQTQPALLTASVALYRVWQQQGGKAPAMMAGHSLGEYSALVCAGVIDFADAVRLVEMRGKFMQEAVPEGTGAMAAIIGLDDASIAKACEEAAEGQVVSPVNFNSPGQVVIAGHKEAVERAGAACKAAGAKRALPLPVSVPSHCALMKPAADKLAVELAKITFNAPTVPVVNNVDVKCETNGDAIRDALVRQLYNPAQWTKSVEYMAAQGVEHLYEVGPGKVLTGLTKRIVDTLTASALNEPSAMAAALEL
fold change of barcode share [1]: 0.312 ± 0.07 | fold change of barcode share [2]: < 0.0055

B14: argA L59A (protein)
chain: MVKERKTELVEGFRHSVPYINTHRGKTFVIMLGGEAIEHENFSSIVNDIGLLHSLGIRAVVVYGARPQIDANLAAHHHEPLYHKNIRVTDAKTLELVKQAAGTLQLDITARLSMSLNNTPLQGAHINVVSGNFIIAQPLGVDDGVDYCHSGRIRRIDEDAIHRQLDSGAIVLMGPVAVSVTGESFNLTSEEIATQLAIKLKAEKMIGFCSSQGVTNDDGDIVSELFPNEAQARVEAQEEKGDYNSGTVRFLRGAVKACRSGVRRCHLISYQEDGALLQELFSRDGIGTQIVMESAEQIRRATINDIGGILELIRPLEQQGILVRRSREQLEMEIDKFTIIQRDNTTIACAALYPFPEEKIGEMACVAVHPDYRSSSRGEVLLERIAAQAKQSGLSKLFVLTTRSIHWFQERGFTPVDIDLLPESKKQLYNYQRKSKVLMADLG
fold change of barcode share [1]: 0.311 ± 0.041 | fold change of barcode share [2]: 0.00925 ± 0.0044
